Data on one molecule can be found in publication PMC4942575.

Amino acid sequences for entries named in this document (tags omitted).
UniProt Q39026: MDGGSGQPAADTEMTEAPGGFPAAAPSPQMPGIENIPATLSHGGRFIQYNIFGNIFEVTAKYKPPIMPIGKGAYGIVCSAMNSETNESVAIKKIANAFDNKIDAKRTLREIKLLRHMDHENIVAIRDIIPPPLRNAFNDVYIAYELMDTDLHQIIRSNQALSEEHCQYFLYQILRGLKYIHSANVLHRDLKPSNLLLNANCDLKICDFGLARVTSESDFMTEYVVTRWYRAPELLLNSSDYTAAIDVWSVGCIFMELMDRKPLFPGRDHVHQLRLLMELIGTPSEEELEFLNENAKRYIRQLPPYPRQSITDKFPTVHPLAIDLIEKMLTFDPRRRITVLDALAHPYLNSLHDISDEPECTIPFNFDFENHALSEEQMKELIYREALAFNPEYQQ

No constants are given. Whether binding was seen depends on the method and setting. In cells and extracts the contact can be indirect. Some entries that bind do so weakly or less than the wild type. Where a sequence is shown, tags or fusion partners need not be part of it.

Test [1] deals with MPK6-GFP (Arabidopsis) (UniProt Q39026). Put plainly: co-IP; as a7, protoplasts treated with 5 mM EGTA for 1 h before extraction.
Test [2] addresses T1, MPK3-GFP (Arabidopsis) (UniProt Q39023).
T1 sequence: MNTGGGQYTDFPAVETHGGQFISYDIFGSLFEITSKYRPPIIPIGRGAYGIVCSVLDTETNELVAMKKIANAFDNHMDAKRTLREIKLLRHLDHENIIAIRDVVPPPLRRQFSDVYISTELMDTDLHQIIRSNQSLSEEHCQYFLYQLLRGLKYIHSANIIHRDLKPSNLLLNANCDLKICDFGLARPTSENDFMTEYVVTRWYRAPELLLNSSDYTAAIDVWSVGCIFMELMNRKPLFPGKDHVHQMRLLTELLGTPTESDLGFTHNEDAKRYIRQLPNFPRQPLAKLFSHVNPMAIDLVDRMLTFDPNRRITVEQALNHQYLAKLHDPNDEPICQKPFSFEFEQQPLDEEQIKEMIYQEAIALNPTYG
The test is described as above.

The target of test [3] is T2, MKK5-GFP (Arabidopsis) (UniProt Q8RXG3).
T2 sequence: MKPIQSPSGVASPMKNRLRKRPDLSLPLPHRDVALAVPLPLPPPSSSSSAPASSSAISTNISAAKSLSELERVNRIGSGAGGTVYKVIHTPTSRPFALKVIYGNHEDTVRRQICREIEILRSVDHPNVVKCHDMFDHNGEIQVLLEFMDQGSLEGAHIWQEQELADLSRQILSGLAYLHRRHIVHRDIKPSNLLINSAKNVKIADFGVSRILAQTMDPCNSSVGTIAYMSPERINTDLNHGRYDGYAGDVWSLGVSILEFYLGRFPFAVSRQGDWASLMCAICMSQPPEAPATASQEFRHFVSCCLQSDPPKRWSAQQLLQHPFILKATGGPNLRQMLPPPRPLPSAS
The description is as above.

The target in test [4] is T3, MKK4-GFP (Arabidopsis) (UniProt O80397).
T3 sequence: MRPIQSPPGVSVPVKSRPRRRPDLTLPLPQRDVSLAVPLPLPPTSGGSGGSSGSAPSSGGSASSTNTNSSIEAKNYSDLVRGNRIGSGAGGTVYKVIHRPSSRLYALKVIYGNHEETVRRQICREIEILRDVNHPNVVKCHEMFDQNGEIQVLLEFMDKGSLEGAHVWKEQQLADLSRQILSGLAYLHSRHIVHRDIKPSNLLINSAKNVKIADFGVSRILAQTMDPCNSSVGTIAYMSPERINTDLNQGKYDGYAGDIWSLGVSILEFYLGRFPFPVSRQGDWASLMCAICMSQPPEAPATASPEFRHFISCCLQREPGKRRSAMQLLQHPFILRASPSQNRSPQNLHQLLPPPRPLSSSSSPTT
The description is as above.

In test [5] the target is MPK6-GFP (Arabidopsis) (UniProt Q39026). The test can be described thus: co-IP; Arabidopsis protoplasts (wild type and cas-1) co-transfected with MPK3/MPK6-GFP or MKK4/MKK5-GFP and 14-3-3ω-FLAG; untreated, 1 mM CaCl2 for 1 h, or Lin and NF treatment; anti-GFP beads, anti-FLAG immunoblot. A general note: Immunoblotting shows a protein as a band on a membrane.
The target of test [6] is T1, MPK3-GFP (Arabidopsis). Described as above.
In test [7] the target is T2, MKK5-GFP (Arabidopsis). The description is as above.
The target in test [8] is T3, MKK4-GFP (Arabidopsis). The description is as above.
Test [9] has as its target MPK6-GFP (Arabidopsis) (UniProt Q39026). Put plainly: co-IP; as a7, protoplasts treated with 10 μg ml^-1 R18 peptide for 1 h before extraction.
Test [10] has as its target T1, MPK3-GFP (Arabidopsis). The description is as above.
For test [11], the target named is T2, MKK5-GFP (Arabidopsis). The test is described as above.
The target of test [12] is T3, MKK4-GFP (Arabidopsis). The description is as above.

B1: 14-3-3ω-FLAG (protein, UniProt Q01525 1-259)
chain: MASGREEFVYMAKLAEQAERYEEMVEFMEKVSAAVDGDELTVEERNLLSVAYKNVIGARRASWRIISSIEQKEESRGNDDHVTAIREYRSKIETELSGICDGILKLLDSRLIPAAASGDSKVFYLKMKGDYHRYLAEFKTGQERKDAAEHTLAAYKSAQDIANAELAPTHPIRLGLALNFSVFYYEILNSPDRACNLAKQAFDEAIAELDTLGEESYKDSTLIMQLLRDNLTLWTSDMQDDAADEIKEAAAPKPTEEQQ
Take B1: the binding entry in test [1] is on record as “no binding (condition: with 5 mM EGTA)”; in [2], “no binding (condition: with 5 mM EGTA)”; in test [3], “no binding (condition: with 5 mM EGTA)”; in test [4], “no binding (condition: with 5 mM EGTA)”; in test [5] it was “binds”; in test [6] it was “binds”. Further, the binding entry is recorded as “binds” in test [7]; “binds” in test [8]; “no binding (condition: with 10 μg ml^-1 R18 peptide)” in [9]; “no binding (condition: with 10 μg ml^-1 R18 peptide)” in [10]; “no binding (condition: with 10 μg ml^-1 R18 peptide)” in test [11]; “no binding (condition: with 10 μg ml^-1 R18 peptide)” in test [12].
